# Assay results from publication PMC12820563.
# The other results are listed elsewhere or left out. The list includes weakly bound sequences.
# Target: T1, MBP-FoxP3dN (UniProt Q99JB6)
# T1 sequence: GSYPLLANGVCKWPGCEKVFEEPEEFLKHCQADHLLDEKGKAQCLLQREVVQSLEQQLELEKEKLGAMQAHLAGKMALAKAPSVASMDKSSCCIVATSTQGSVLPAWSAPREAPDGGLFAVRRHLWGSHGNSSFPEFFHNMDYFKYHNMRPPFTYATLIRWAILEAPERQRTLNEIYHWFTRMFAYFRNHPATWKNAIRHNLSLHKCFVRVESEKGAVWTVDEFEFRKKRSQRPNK
# Experiment: PD-seq (MBP pull-down with sequencing)
# Details: 20 mM Tris-HCl pH 7.5, 100 mM NaCl, 1.5 mM MgCl2, 0.4 uM protein, 0.1 uM dsDNA library, 30 min, room temperature, amylose pull-down; high values mean tight binding; double strand, one strand shown
row,Sequence,binding signal (RPM ratio (pull-down/input))
1,GATGATTGTTCTCCCAGCTGATGAATTCGAAGATTCGAGTAAACAAATTTTCCTAATCTTTCTGTTCAAGCGCCATCTAC,0.243
2,GATGATTGTTCTCCCAGCTGATGAATTCCCACTGTCGAGTAAACAAATTTTCCTAATCTTTCTGTTCAAGCGCCATCTAC,0.281
3,GATGATTGTTCTCCCAGCTGATGAATTGGGCTCATCGAGTAAACAAATTTTCCTAATCTTTCTGTTCAAGCGCCATCTAC,0.463
4,GATGATTGTTCTCCCAGCTGATGAATTCGTGAAATCGAGTAAACAAATTTTCCTAATCTTTCTGTTCAAGCGCCATCTAC,0.321
5,GATGATTGTTCTCCCAGCTGATGAATTCTGAATGTCGAGTAAACAAATTTTCCTAATCTTTCTGTTCAAGCGCCATCTAC,0.888
6,GATGATTGTTCTCCCAGCTGATGAATTAAGCTGTTCGAGTAAACAAATTTTCCTAATCTTTCTGTTCAAGCGCCATCTAC,1.12
7,GATGATTGTTCTCCCAGCTGATGAATTCGACCCTTCGAGTAAACAAATTTTCCTAATCTTTCTGTTCAAGCGCCATCTAC,0.384
8,GATGATTGTTCTCCCAGCTGATGAATTACTGTTTTCGAGTAAACAAATTTTCCTAATCTTTCTGTTCAAGCGCCATCTAC,1.17
9,GATGATTGTTCTCCCAGCTGATGAATTCTAAGACTCGAGTAAACAAATTTTCCTAATCTTTCTGTTCAAGCGCCATCTAC,0.231
10,GATGATTGTTCTCCCAGCTGATGAATTCAATTACTCGAGTAAACAAATTTTCCTAATCTTTCTGTTCAAGCGCCATCTAC,3.27
11,GATGATTGTTCTCCCAGCTGATGAATTAGCGCTATCGAGTAAACAAATTTTCCTAATCTTTCTGTTCAAGCGCCATCTAC,0.84
12,GATGATTGTTCTCCCAGCTGATGAATTCTATTGTTCGAGTAAACAAATTTTCCTAATCTTTCTGTTCAAGCGCCATCTAC,5.2
13,GATGATTGTTCTCCCAGCTGATGAATTTGTAAGCTCGAGTAAACAAATTTTCCTAATCTTTCTGTTCAAGCGCCATCTAC,2.54
14,GATGATTGTTCTCCCAGCTGATGAATTCGAGTGATCGAGTAAACAAATTTTCCTAATCTTTCTGTTCAAGCGCCATCTAC,0.449
15,GATGATTGTTCTCCCAGCTGATGAATTAGCCTCATCGAGTAAACAAATTTTCCTAATCTTTCTGTTCAAGCGCCATCTAC,0.954
16,GATGATTGTTCTCCCAGCTGATGAATTGGAGCCTTCGAGTAAACAAATTTTCCTAATCTTTCTGTTCAAGCGCCATCTAC,1.39

row,Sequence,binding signal (RPM ratio (pull-down/input))
1,GATGATTGTTCTCCCAGCTGATGAATTCGGCATATCGAGTAAACAAATTTTCCTAATCTTTCTGTTCAAGCGCCATCTAC,2.53
2,GATGATTGTTCTCCCAGCTGATGAATTGCTTGTCTCGAGTAAACAAATTTTCCTAATCTTTCTGTTCAAGCGCCATCTAC,1.71
3,GATGATTGTTCTCCCAGCTGATGAATTGTGATAGTCGAGTAAACAAATTTTCCTAATCTTTCTGTTCAAGCGCCATCTAC,1.6
4,GATGATTGTTCTCCCAGCTGATGAATTCATGAGCTCGAGTAAACAAATTTTCCTAATCTTTCTGTTCAAGCGCCATCTAC,0.404
5,GATGATTGTTCTCCCAGCTGATGAATTTCTACACTCGAGTAAACAAATTTTCCTAATCTTTCTGTTCAAGCGCCATCTAC,0.29
6,GATGATTGTTCTCCCAGCTGATGAATTTTCGAAATCGAGTAAACAAATTTTCCTAATCTTTCTGTTCAAGCGCCATCTAC,0.331
7,GATGATTGTTCTCCCAGCTGATGAATTTCGCATGTCGAGTAAACAAATTTTCCTAATCTTTCTGTTCAAGCGCCATCTAC,5.75
8,GATGATTGTTCTCCCAGCTGATGAATTCACACTGTCGAGTAAACAAATTTTCCTAATCTTTCTGTTCAAGCGCCATCTAC,0.4
9,GATGATTGTTCTCCCAGCTGATGAATTCTTTGCATCGAGTAAACAAATTTTCCTAATCTTTCTGTTCAAGCGCCATCTAC,0.99
10,GATGATTGTTCTCCCAGCTGATGAATTCAACACGTCGAGTAAACAAATTTTCCTAATCTTTCTGTTCAAGCGCCATCTAC,0.477
11,GATGATTGTTCTCCCAGCTGATGAATTCCTAATGTCGAGTAAACAAATTTTCCTAATCTTTCTGTTCAAGCGCCATCTAC,0.337
12,GATGATTGTTCTCCCAGCTGATGAATTCGGGATGTCGAGTAAACAAATTTTCCTAATCTTTCTGTTCAAGCGCCATCTAC,0.394
13,GATGATTGTTCTCCCAGCTGATGAATTATACCAGTCGAGTAAACAAATTTTCCTAATCTTTCTGTTCAAGCGCCATCTAC,0.351
14,GATGATTGTTCTCCCAGCTGATGAATTATCAAGATCGAGTAAACAAATTTTCCTAATCTTTCTGTTCAAGCGCCATCTAC,0.227
15,GATGATTGTTCTCCCAGCTGATGAATTCGACGTGTCGAGTAAACAAATTTTCCTAATCTTTCTGTTCAAGCGCCATCTAC,0.789
16,GATGATTGTTCTCCCAGCTGATGAATTGCTCAAATCGAGTAAACAAATTTTCCTAATCTTTCTGTTCAAGCGCCATCTAC,0.408
